Screen size: about 310,000 compounds; about 2,200 (0.71%) showed an effect of 50% or more. Effects have a minus sign here. Some of the results follow.
Each compound was assayed against human ether-à-go-go-related gene (hERG) potassium channel (human, UniProt Q12809) (assay: primary screen, population patch clamp on CHO cells stably expressing hERG).
Sequence of human ether-à-go-go-related gene (hERG) potassium channel (Q12809 whole entry, looked up): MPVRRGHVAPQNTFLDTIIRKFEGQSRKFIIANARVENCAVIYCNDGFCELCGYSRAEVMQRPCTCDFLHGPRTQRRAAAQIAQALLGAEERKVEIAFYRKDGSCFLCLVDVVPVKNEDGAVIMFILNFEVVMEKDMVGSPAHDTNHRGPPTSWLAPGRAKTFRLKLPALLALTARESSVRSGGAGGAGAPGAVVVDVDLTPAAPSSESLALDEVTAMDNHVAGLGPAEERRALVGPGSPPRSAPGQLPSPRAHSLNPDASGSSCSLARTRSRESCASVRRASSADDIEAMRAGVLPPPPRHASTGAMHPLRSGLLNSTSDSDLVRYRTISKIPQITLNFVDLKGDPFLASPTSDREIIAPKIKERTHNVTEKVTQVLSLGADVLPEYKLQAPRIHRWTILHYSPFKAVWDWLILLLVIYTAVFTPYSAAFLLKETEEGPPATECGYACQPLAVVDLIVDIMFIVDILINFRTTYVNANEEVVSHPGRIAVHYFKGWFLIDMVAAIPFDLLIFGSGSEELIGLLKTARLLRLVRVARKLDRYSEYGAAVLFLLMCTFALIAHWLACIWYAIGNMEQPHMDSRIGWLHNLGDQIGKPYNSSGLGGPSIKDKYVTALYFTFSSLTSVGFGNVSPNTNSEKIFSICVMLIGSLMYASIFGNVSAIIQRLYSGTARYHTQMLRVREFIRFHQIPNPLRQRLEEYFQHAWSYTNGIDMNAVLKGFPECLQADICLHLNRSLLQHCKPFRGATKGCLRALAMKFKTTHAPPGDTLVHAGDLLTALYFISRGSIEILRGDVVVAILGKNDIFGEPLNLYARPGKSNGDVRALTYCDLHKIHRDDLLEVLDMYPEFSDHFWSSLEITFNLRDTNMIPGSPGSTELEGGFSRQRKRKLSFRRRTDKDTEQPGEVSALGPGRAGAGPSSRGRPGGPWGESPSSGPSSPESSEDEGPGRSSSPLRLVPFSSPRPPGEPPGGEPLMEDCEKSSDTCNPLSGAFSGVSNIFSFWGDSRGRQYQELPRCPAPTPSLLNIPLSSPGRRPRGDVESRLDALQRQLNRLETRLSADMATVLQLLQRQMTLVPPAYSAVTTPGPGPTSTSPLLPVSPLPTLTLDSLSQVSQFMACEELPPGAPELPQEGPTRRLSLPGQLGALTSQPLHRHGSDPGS

Row | Compound | hERG current change (%, negative = inhibition) at 1uM
1 | Cc1cccc(NC(=S)NC(=O)CCc2ccccc2)c1C | 10.2%
2 | CC(C)c1ccc(-c2csc3ncnc(N4CCN(C)CC4)c23)cc1 | 10.8%
3 | CC(NC(=S)NC1CCC(C(C)(C)C)CC1)c1ccccc1 (stereo not shown) | 18.1%
4 | CCN(Cc1ccccc1)C(=O)CSc1nc(C)cc(=O)[nH]1 | 10.9%
5 | CSc1cccc(NC(=O)c2cccc3cccnc23)c1 | 5.79%
6 | O=C1CCN(S(=O)(=O)c2cccs2)c2ccc(C(F)(F)F)cc2N1 | 8.68%
7 | COc1ccc(CCNC(=O)COc2ccccc2[N+](=O)[O-])cc1OC | 13.4%
8 | CCOC(=O)CC(/C(C)=N\O)c1ccccc1 (stereo not shown) | 15.2%
9 | O=C(N/N=C/c1cccnc1)C(O)(c1ccccc1)c1ccccc1 | 7.07%
10 | CC1(C)C(c2ccccn2)=[N+]([O-])C(C)(C)N1O | 17.2%
11 | COc1cccc2c1OC1(C)CC2NC(=O)N1Cc1ccccc1 (stereo not shown) | 9.84%
12 | N#CCc1ccc(Oc2ncccn2)cc1 | 18.7%
13 | COc1ccccc1N(CC(=O)NCc1ccc(F)cc1)C(=O)CCC(=O)Nc1nccs1 | 4.87%
14 | CCOC(=O)N1CCN(C(=O)/C=C/c2ccc([N+](=O)[O-])cc2)CC1 | -49.3%
15 | CCOC(=O)C1CCN(S(=O)(=O)CCNC(=O)c2ccc3c(c2)OCO3)CC1 | 9.09%
16 | Cc1ccc(-c2csc(-c3ccncc3)n2)cc1 | 7.86%
17 | C=CCn1c(SCc2csc(-c3ccc(C)cc3)n2)nnc1-c1ccccc1OC | 3.65%
18 | COc1cc2[nH]c(=O)n(CCCC(=O)NC3CCCCC3)c(=O)c2cc1OC | 10.7%
19 | COc1ccc(S(=O)(=O)NCC(=O)Nc2ccc(F)cc2)cc1 | 8.36%
20 | Cc1ccc(C(=O)CC(C(=O)O)n2cccn2)cc1 (stereo not shown) | 8.76%
21 | O=[N+]([O-])c1ccc(NCc2ccccc2)nc1 | -5.21%
22 | Cc1nn(CC(=O)OCC(=O)NCCc2ccc(S(N)(=O)=O)cc2)c(C)c1[N+](=O)[O-] | 5.11%

Row | Compound | hERG current change (%, negative = inhibition) at 1uM
23 | COC(=O)c1ccc2c(c1)nc(C)n2CCO | 11.4%
24 | Cc1cc(C)nc(-n2nc(C)c3c(C(=O)O)cc(-c4cccc(Br)c4)nc32)n1 | 3.43%
25 | Cc1[nH]c2ccc(C(C)C)cc2c1CC(=O)O | 13.6%
26 | COc1cccc(NC(=O)c2cn(C)c(=O)c3cc(OC)c(OC)cc23)c1 | 13.7%
27 | CC(NC(=O)C1CCCC1)c1ccc(Br)cc1 (stereo not shown) | 12.3%
28 | COc1ccccc1NC(=O)COC(=O)c1c[nH]c(=O)[nH]c1=O | 8.84%
29 | O=C(Nc1ccc(N2CCOCC2)cc1)c1cc(F)c(F)cc1Cl | 8.7%
30 | CCCCN(CC)CCNC(=O)c1cc2c(=O)n(C)c3ccccc3c2s1 | 13.6%
31 | COc1ccc(-c2nn(-c3ccccc3)cc2/C=C/C(=O)O)cc1[N+](=O)[O-] | 7.5%
32 | NNC(=O)c1cc2nc(-c3cccs3)cc(C(F)(F)F)n2n1 | -6.62%
33 | COc1ccc(COCC(O)CN(Cc2ccco2)Cc2ccccc2O)cc1 (stereo not shown) | 6.64%
34 | O=C1c2cccc3c([N+](=O)[O-])ccc(c23)C(=O)N1c1nccs1 | 5.32%
35 | CCC1(C(=O)c2ccccc2)C(c2cccc([N+](=O)[O-])c2)C1(C(=O)OC)C(=O)OC (stereo not shown) | 3.5%
36 | O.OC[C@@H](O)[C@@H](O[C@@H]1O[C@H](CO)[C@H](O)[C@H](O)[C@H]1O)[C@H](O)[C@@H](O)CO | 16.2%
37 | Cc1ccc(S(=O)(=O)N(C)CC(=O)Nc2cccnc2)cc1 | 10.8%
38 | Nc1nc(SCC(=O)NC2CCCCCC2)[nH]c(=O)c1-c1ccccc1 | 2.25%
39 | CCOC(=O)C1CCN(S(=O)(=O)c2ccc3c(c2)CCCN3C(C)=O)CC1 | 3.72%
40 | O=C(NC1CCN(Cc2ccc(F)cc2)CC1)c1ccccc1 | -15.9%
41 | Cc1ccc(S(=O)(=O)NC(CC(C)C)C(=O)Nc2ccncc2)cc1 (stereo not shown) | 11%
42 | CN(C)CCCN1C(=O)c2oc3ccc(Cl)cc3c(=O)c2C1c1cccnc1 (stereo not shown) | -6.72%
43 | N#Cc1c(N)n[nH]c1Cc1cccc2ccccc12 | 8.95%
44 | O=C1OC2(CCCC2)OC(=O)C1=Cc1c[nH]c2ccccc12 | 8.35%

Row | Compound | hERG current change (%, negative = inhibition) at 1uM
45 | O=C1c2ccccc2N(Cc2ccc(Cl)cc2)C2=NCCN12 | -1.71%
46 | OCC1(Cc2ccccc2)CCCN(Cc2ccc3c(c2)OCCO3)C1 (stereo not shown) | -1.51%
47 | COc1cccc(NC(=O)CSc2nccn2-c2cccc(OC)c2)c1 | 6.92%
48 | O=C(c1ccco1)N(Cc1ccc2c(c1)OCO2)Cc1cc2cc3c(cc2[nH]c1=O)OCO3 | 7.71%
49 | CCOC(=O)c1cnc2c(N=Nc3ccccc3)c(N)nn2c1N | 20.6%
50 | CCOc1ccc(NC(=O)Cc2c(O)c3ccccc3[nH]c2=O)cc1 | 15.5%
51 | CC(C)(C)NC(=S)NCC1CC1 | 11.4%
52 | O=S1(=O)CCC(NS(=O)(=O)c2cccc3cccnc23)C1 (stereo not shown) | 13.7%
53 | CCCOc1ccc(NC(=O)C2CC(=O)N/C(=N/N=C(C)/C=C/c3ccc(N(C)C)cc3)S2)cc1 (stereo not shown) | 15.4%
54 | CCC1(c2ccc(F)cc2)NC(=O)N(CC(=O)N2c3ccccc3CC2C)C1=O (stereo not shown) | 8.7%
55 | CC1CCC(NC(=O)c2ccc3snnc3c2)CC1 (stereo not shown) | 24.1%
56 | CCN1CCN(C(=O)c2nn(C)c3c2CS(=O)(=O)c2ccccc2-3)CC1 | 17.8%
57 | Clc1ccc(Nc2nc(NCCN3CCOCC3)nc(N3CCOCC3)n2)cc1 | -15.5%
58 | CCc1ccc(S(=O)(=O)NCc2cccnc2)cc1 | 18.6%
59 | COC(=O)Cc1csc(NCc2ccccc2)n1 | 9.75%
60 | COc1ccc(S(=O)(=O)N2CCCC2C(=O)NCc2cccs2)cc1 (stereo not shown) | 2.29%
61 | COC(=O)C1=C(c2ccc(-c3ccccc3)c(F)c2)C[C@@H]2CC[C@H]1N2C(=O)N1CCc2cc(OC)c(OC)cc2C1 | 15%
62 | CCCOC(=O)CCCCC1SCC(NC(=O)OC)C1NC(=O)OC (stereo not shown) | 8.79%
63 | Nc1nonc1-n1nnc(C(=O)N/N=C/c2ccc(Cl)cc2Cl)c1CN1CCCC1 | 10.5%
64 | CC(NCc1ccc(S(N)(=O)=O)cc1)C(=O)N1c2ccccc2CC1C.O=C(O)C(=O)O (stereo not shown) | -2.79%
65 | CCCn1c(O)c(N=NC(=O)CNC(=O)/C=C/c2ccc(OC)cc2)c2ccccc21 | 14.2%
66 | C=CCC(=O)NC(C)c1cnn(-c2ccccc2C)c1C (stereo not shown) | 8.99%

Row | Compound | hERG current change (%, negative = inhibition) at 1uM
67 | CCOc1ccc(C(C)=O)cc1Cn1ccsc1=N.Cl | 10.4%
68 | COc1ccc(C(=O)C2CCN(C(=S)NCCc3ccc(OC)c(OC)c3)CC2)cc1 | 0.746%
69 | O=c1oc(-c2ccco2)nc2sc3c(c12)CCCCC3 | 5.62%
70 | COCCNC(=S)Nc1ccccn1 | 8.77%
71 | COc1ccc(C(CCN2CCCC2)c2c(OC)cc(OC)c3c(-c4ccccc4)cc(=O)oc23)cc1 (stereo not shown) | -2.86%
72 | COc1ccc(CNC(=O)C2CSCCS2)cc1 (stereo not shown) | 13.6%
73 | COC(=O)c1cc(OC)c(OC)cc1NC(=O)c1cccc(OC)c1OC | 10.1%
74 | O=C(c1cc2nc(-c3ccc(F)cc3)cc(C(F)(F)F)n2n1)N1CCCCC1c1cccnc1 (stereo not shown) | -3.73%
75 | CS(=O)(=O)N(CC(=O)N1CCCCCC1)c1cccc([N+](=O)[O-])c1 | 2.29%
76 | Cc1cc(NC(=O)c2cc(-c3ccncc3)nc3c(C)cccc23)no1 | 10.1%
77 | CCCCCCCCCCC[N+](C)(C)CC/C=C1/c2ccccc2Sc2ccc(Cl)cc21.[Br-] | 8.65%
78 | Cc1ccc(C(OC(=O)c2ccco2)C(=O)NCc2cccs2)cc1 (stereo not shown) | 16.3%
79 | CCOC(=O)C1=C(COC(=O)c2cc(OC)c(OC)c(OC)c2)NC(=O)NC1C (stereo not shown) | 14.3%
80 | CC1=C(C(=O)Nc2ccccc2)C(c2cccs2)C(C#N)=C(SCC#N)N1 (stereo not shown) | 3.14%
81 | O=C(Nc1cccc(-c2ccc(N3CCOCC3)nn2)c1)c1ccc(Cl)cc1 | 8.13%
82 | COc1ccccc1C(=O)Nc1ccc(S(=O)(=O)Nc2cc(C)nc(C)n2)cc1 | 12.9%
83 | CCOC(=O)/C(C#N)=C\c1ccc(O)c(OC)c1 | 12.7%
84 | Cc1ccc(C2CC(c3cccs3)=NN2C(=O)c2ccc(Br)o2)cc1 (stereo not shown) | 14.6%
85 | CCOc1cccc2sc(N(CCN(C)C)C(=O)c3ccc4ccccc4c3)nc12.Cl | -0.491%
86 | Clc1ccccc1CN(Cc1ccccc1)C(c1cccs1)c1nnnn1C1CCCC1 (stereo not shown) | 18%
87 | CC1=C(C(=O)Nc2ccccc2)C(c2ccc(C)o2)n2ncnc2N1 (stereo not shown) | 13.2%
88 | COc1ccc(NS(=O)(=O)c2cc(OCC(N)=O)c(C)cc2Cl)cc1 | 13.1%
